# Reference: the supplement of paper PMC8728848
# Some of the results follow.
# B1: PX9961H-bth-557-24-557 (Bacteroides thetaiotaomicron) (protein)
# chain: EETRTEVEKKNYMNNAEEAKDVLLGVYRTNTLDAMYGYYLSILFNLGTDISQVEGSGNENFRIIPTNSFPTTQSEVQQTWAALYTGIYRANDFLERISNKIGSYTTTDKKLATLYIAEARALRGMFYFELVRRFGNVVLMTSTQMSNQNPATYVQSAPEKVYEYIEDDLLYACDILPYATDDQYRESNDYRFSKGAALGLLTKVYATWAGYPVKDESKWEAAAKTARILVESGKHGLLKDYEQLWKNTCNGTWDPTESLIEISFYSPTVSGNSDPVGRIGKWNGVKTTAIAGVRGSCAANVKVVHTFVLDWREDVSDIRRDLSIANYQYTDTKKSLWVAGASDTDESAAEKDADPTKAQKNKQNYTPAKWDIQKYVTTNSFINNDKSNVNWYFLRYADVLLLYAEALNEWKHGPDAEAYNAINAVRRRGYGNPSNTSACDLPQGLDETSFREAVRKERSYELSFEGHRRQDLIRWGIYYKTVQATAKELGYWWEGTGSPNYSVATYTEEGKHELFPIPQRDMDLCIQFNQNPKW
# What was measured:
# Assay in all cases: glycan array binding signal (z-score within array); higher = stronger binding
# Settings in all cases: glycan notation: IUPAC condensed, linker removed
# [1] = biological target: Man(a1-2)Man(a1-3)[Man(a1-2)Man(a1-6)]Man(a1-6)[Man(a1-2)Man(a1-2)Man(a1-3)]Man
# How it was run: (§1)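 Arrays were curated from the Consortium for Functional Glycomics database, 3228 in total, and kept only where the protein sequence was available. Binding is expressed as a within-array Z-score. This score was averaged across arrays of the same protein sequence at different concentrations or buffers and across linkers, and negative values can be read as non-binding.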
# [2] = biological target: Man(a1-2)Man(a1-3)[Man(a1-2)Man(a1-6)]Man(a1-6)[Man(a1-2)Man(a1-2)Man(a1-3)]Man(b1-4)GlcNAc(b1-4)GlcNAc
# How it was run: as §1
# [3] = biological target: Man(a1-2)Man(a1-3)[Man(a1-6)]Man(a1-6)[Man(a1-2)Man(a1-3)]Man(b1-4)GlcNAc(b1-4)GlcNAc
# How it was run: as §1
# [4] = biological target: Man(a1-2)Man(a1-6)[Man(a1-3)]Man(a1-6)[Man(a1-2)Man(a1-2)Man(a1-3)]Man
# How it was run: as §1
# [5] = biological target: Man(a1-2)Man(a1-6)[Man(a1-3)]Man(a1-6)[Man(a1-2)Man(a1-2)Man(a1-3)]Man(b1-4)GlcNAc(b1-4)GlcNAc
# How it was run: as §1
# Man(a1-3)[Man(a1-6)]Man = biological target: Man(a1-3)[Man(a1-6)]Man
# How it was run: as §1
# [6] = biological target: Man(a1-3)[Man(a1-6)]Man(a1-6)[Man(a1-2)Man(a1-3)]Man(b1-4)GlcNAc(b1-4)GlcNAc
# How it was run: as §1
# [7] = biological target: Man(a1-3)[Man(a1-6)]Man(a1-6)[Man(a1-3)]Man
# How it was run: as §1
# [8] = biological target: Man(a1-3)[Man(a1-6)]Man(a1-6)[Man(a1-3)]Man(b1-4)GlcNAc(b1-4)GlcNAc
# How it was run: as §1
# [9] = biological target: Man(a1-3)[Man(a1-6)]Man(b1-4)GlcNAc(b1-4)GlcNAc
# How it was run: as §1
# [10] = biological target: Man(a1-3)[Man(a1-6)]Man(b1-4)GlcNAc(b1-4)[Fuc(a1-6)]GlcNAc
# How it was run: as §1
# Man(a1-6)Man = biological target: Man(a1-6)Man
# How it was run: as §1
# Man(b1-4)GlcNAc = biological target: Man(b1-4)GlcNAc
# How it was run: as §1
# MurNAc(b1-4)GlcNAc = biological target: MurNAc(b1-4)GlcNAc
# How it was run: as §1
# Neu5Ac(a2-3)Gal = biological target: Neu5Ac(a2-3)Gal
# How it was run: as §1
# [11] = biological target: Neu5Ac(a2-3)Gal(b1-3)GalNAc
# How it was run: as §1
# [12] = biological target: Neu5Ac(a2-3)Gal(b1-3)GalNAc(b1-3)Gal(a1-4)Gal(b1-4)Glc
# How it was run: as §1
# [13] = biological target: Neu5Ac(a2-3)Gal(b1-3)GalNAc(b1-4)[Neu5Ac(a2-3)]Gal(b1-4)Glc
# How it was run: as §1
# [14] = biological target: Neu5Ac(a2-3)Gal(b1-3)GalNAc(b1-4)[Neu5Ac(a2-8)Neu5Ac(a2-3)]Gal(b1-4)Glc
# How it was run: as §1
# [15] = biological target: Neu5Ac(a2-3)Gal(b1-3)GalNAc6S
# How it was run: as §1
# [16] = biological target: Neu5Ac(a2-3)Gal(b1-3)GlcNAc
# How it was run: as §1
# [17] = biological target: Neu5Ac(a2-3)Gal(b1-3)GlcNAc(b1-2)Man
# How it was run: as §1
# [18] = biological target: Neu5Ac(a2-3)Gal(b1-3)GlcNAc(b1-2)Man(a1-3)[GlcNAc(b1-4)][Neu5Ac(a2-3)Gal(b1-3)GlcNAc(b1-2)Man(a1-6)]Man(b1-4)GlcNAc(b1-4)GlcNAc
# How it was run: as §1
# [19] = biological target: Neu5Ac(a2-3)Gal(b1-3)GlcNAc(b1-2)Man(a1-3)[Neu5Ac(a2-3)Gal(b1-3)GlcNAc(b1-2)Man(a1-6)]Man(b1-4)GlcNAc(b1-4)GlcNAc
# How it was run: as §1
# [20] = biological target: Neu5Ac(a2-3)Gal(b1-3)GlcNAc(b1-3)Gal(b1-3)GlcNAc
# How it was run: as §1
# [21] = biological target: Neu5Ac(a2-3)Gal(b1-3)GlcNAc(b1-3)Gal(b1-4)GlcNAc
# How it was run: as §1
# [22] = biological target: Neu5Ac(a2-3)Gal(b1-3)GlcNAc(b1-3)GalNAc
# How it was run: as §1
# [23] = biological target: Neu5Ac(a2-3)Gal(b1-3)GlcNAc(b1-4)Gal(b1-4)Glc
# How it was run: as §1
# [24] = biological target: Neu5Ac(a2-3)Gal(b1-3)GlcNAc(b1-6)GalNAc
# How it was run: as §1
# [25] = biological target: Neu5Ac(a2-3)Gal(b1-3)GlcNAc6S
# How it was run: as §1
# [26] = biological target: Neu5Ac(a2-3)Gal(b1-3)[Fuc(a1-4)]GlcNAc
# How it was run: as §1
# [27] = biological target: Neu5Ac(a2-3)Gal(b1-3)[Fuc(a1-4)]GlcNAc(b1-3)Gal(b1-3)[Fuc(a1-4)]GlcNAc
# How it was run: as §1
# [28] = biological target: Neu5Ac(a2-3)Gal(b1-3)[Fuc(a1-4)]GlcNAc(b1-3)Gal(b1-4)[Fuc(a1-3)]GlcNAc
# How it was run: as §1
# [29] = biological target: Neu5Ac(a2-3)Gal(b1-3)[GlcNAc(b1-6)]GalNAc
# How it was run: as §1
# [30] = biological target: Neu5Ac(a2-3)Gal(b1-3)[Neu5Ac(a2-6)]GalNAc
# How it was run: as §1
# [31] = biological target: Neu5Ac(a2-3)Gal(b1-3)[Neu5Ac(a2-6)]GlcNAc(b1-3)[Fuc(a1-3)[Gal(b1-4)]GlcNAc(b1-6)]Gal(b1-4)Glc
# How it was run: as §1
# [32] = biological target: Neu5Ac(a2-3)Gal(b1-3)]Neu5Ac(a2-3)Gal(b1-4)]GlcNAc
# How it was run: as §1
binder,measurement,setting,value
B1,glycan array binding signal (z-score),[1],-0.558
same,glycan array binding signal (z-score),[2],-0.654
same,glycan array binding signal (z-score),[3],-0.398
same,glycan array binding signal (z-score),[4],0.043
same,glycan array binding signal (z-score),[5],-0.356
same,glycan array binding signal (z-score),Man(a1-3)[Man(a1-6)]Man,0.279
same,glycan array binding signal (z-score),[6],-0.539
same,glycan array binding signal (z-score),[7],0.129
same,glycan array binding signal (z-score),[8],-0.619
same,glycan array binding signal (z-score),[9],-0.3
same,glycan array binding signal (z-score),[10],-0.454
same,glycan array binding signal (z-score),Man(a1-6)Man,-0.064
same,glycan array binding signal (z-score),Man(b1-4)GlcNAc,-0.424
same,glycan array binding signal (z-score),MurNAc(b1-4)GlcNAc,-0.515
same,glycan array binding signal (z-score),Neu5Ac(a2-3)Gal,-0.112
same,glycan array binding signal (z-score),[11],-0.207
same,glycan array binding signal (z-score),[12],-0.456
same,glycan array binding signal (z-score),[13],-0.225
same,glycan array binding signal (z-score),[14],-0.483
same,glycan array binding signal (z-score),[15],-0.315
same,glycan array binding signal (z-score),[16],-0.454
same,glycan array binding signal (z-score),[17],-0.556
same,glycan array binding signal (z-score),[18],-0.392
same,glycan array binding signal (z-score),[19],-0.188
same,glycan array binding signal (z-score),[20],-0.165
same,glycan array binding signal (z-score),[21],-0.413
same,glycan array binding signal (z-score),[22],-0.552
same,glycan array binding signal (z-score),[23],0
same,glycan array binding signal (z-score),[24],0.005
same,glycan array binding signal (z-score),[25],0.048
same,glycan array binding signal (z-score),[26],-0.128
same,glycan array binding signal (z-score),[27],-0.272
same,glycan array binding signal (z-score),[28],0.056
same,glycan array binding signal (z-score),[29],-0.24
same,glycan array binding signal (z-score),[30],-0.299
same,glycan array binding signal (z-score),[31],-0.186
same,glycan array binding signal (z-score),[32],-0.127
